Tests used:
[1] = biological target: T1, LX6960073_G82bS_gl IgG1-TM; experiment: competition ELISA: soluble LOX1 titrated against LX6960073_G82bS_gl IgG1-TM (12.5 ng/mL) binding to coated biotinylated human LOX1
T1 construct: Whole human IgG1-TM, germlined, with heavy chain G82bS (Kabat); also called LOX10696_73

[2] = biological target: T2, LX5140110 IgG1-TM; experiment: competition ELISA: soluble LOX1 titrated against LX5140110 IgG1-TM (12.5 ng/mL) binding to coated biotinylated human LOX1
T2 construct: Whole human IgG1-TM (L234F/L235E/P331S); also called LOX514110; LOX514_110
T2 sequence (VH, as listed by the source, chain 1 of 2): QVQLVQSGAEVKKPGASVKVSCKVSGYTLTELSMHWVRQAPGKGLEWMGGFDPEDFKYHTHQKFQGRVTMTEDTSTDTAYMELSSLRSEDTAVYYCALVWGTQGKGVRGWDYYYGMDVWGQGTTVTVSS
T2 sequence (VL, as listed by the source, chain 2 of 2): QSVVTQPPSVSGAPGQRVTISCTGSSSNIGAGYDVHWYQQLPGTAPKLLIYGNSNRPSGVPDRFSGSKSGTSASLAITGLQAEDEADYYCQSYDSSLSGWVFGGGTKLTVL

T1 sequence (VH, as listed by the source, chain 1 of 2): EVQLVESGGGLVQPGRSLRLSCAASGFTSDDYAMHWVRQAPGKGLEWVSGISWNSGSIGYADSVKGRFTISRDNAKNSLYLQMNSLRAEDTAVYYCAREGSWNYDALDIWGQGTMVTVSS
T1 sequence (VL, as listed by the source, chain 2 of 2): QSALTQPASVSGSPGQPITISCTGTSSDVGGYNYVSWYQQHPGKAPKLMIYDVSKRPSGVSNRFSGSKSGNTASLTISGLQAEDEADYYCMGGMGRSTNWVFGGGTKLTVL

IC50 [1]: 1.8 nM
IC50 [2]: 44 nM
B1: cynomolgus LOX1-(FlagHis) extracellular domain (receptor, not shown: small tags and cut ends)
chain: not shown
notes: extracellular domain; Made in HEK293 EBNA cells; also called cynoLOX1; cyLOX

— US20210347900A1 (AstraZeneca / MedImmune, published 2021)
